Data on 172 sequences can be found in paper PMC5836133.

This is one part of the list. At the low end of the ranking, values are background and their order means little.

The test system of the assay is T1, GST-NbGlk1(82-244).
T1 sequence: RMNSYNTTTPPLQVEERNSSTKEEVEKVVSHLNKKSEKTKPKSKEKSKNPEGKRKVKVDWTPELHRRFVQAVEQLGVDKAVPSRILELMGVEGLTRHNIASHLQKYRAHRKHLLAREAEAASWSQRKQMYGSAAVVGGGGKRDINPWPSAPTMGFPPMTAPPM
The experiment in a line: protein-binding microarray.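 Also: rank-based score ranging −0.5 to +0.5 with E above 0.45 taken as significant binding.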 As to conditions: NbGlk1 is a Golden2-like transcription factor of Nicotiana benthamiana; high values mean tight binding; most listed sequences are background and not binding sites; double strand, one strand shown.
ACTGGTCA displayed a binding signal of -0.194 E-score.

With ATGCCAAC, the binding signal is -0.0573 E-score. CACGCTCC registered a binding signal of -0.134 E-score. Consider AGCACGAT, for which the binding signal was found to be 0.124 E-score. In turn, AGGAAATC came in with a binding signal of 0.489 E-score. For AAGGGTGT the value was -0.244 E-score; for AGTAAGTG, -0.00531 E-score.

Turning to AGTCGCAG, the binding signal is -0.129 E-score. Turning to AGACCCAT, the binding signal was -0.229 E-score. Regarding AGTATTAC, the binding signal amounted to 0.0576 E-score. AGTTCAGG: the binding signal was -0.161 E-score.

ACACTCGC came in with a binding signal of -0.0974 E-score. Sequence ACCCCACG gave a binding signal of -0.172 E-score. The result for AGGTCCGC reads -0.237 E-score; that for ATAATTGG, 0.128 E-score.

Sequence AGCCATAT showed a binding signal of 0.13 E-score.

ACTCGTCC showed a binding signal of -0.115 E-score. The sequence AAACTCCC registered a binding signal of -0.219 E-score. As for CACCTCGA, the binding signal was -0.105 E-score. The sequence ACAGTCCA came in with a binding signal of -0.131 E-score. For ATTGTCGG the value was 0.0652 E-score. As to AAAAGATA, the binding signal was 0.19 E-score. In turn, ATACAACC gave a binding signal of -0.0811 E-score. In turn, AGAAGGCG registered a binding signal of -0.21 E-score.

In the case of AAAAATTC, the binding signal came out at 0.151 E-score. ATGGCAAT had a binding signal of 0.237 E-score. In turn, AACTAACA displayed a binding signal of 0.0231 E-score.

As for AGCTCAGA, the binding signal is -0.084 E-score. In the case of AGCAACTG, the binding signal is -0.175 E-score. For AACTAAGC the value was -0.0405 E-score.

For the sequence ATGTCATA, the binding signal worked out at 0.0662 E-score. Sequence ACTCCGCA came in with a binding signal of -0.0594 E-score. Sequence ACGCGCCA yielded a binding signal of -0.114 E-score.

In turn, AGCCTTCC came in with a binding signal of -0.377 E-score. CACGAACG showed a binding signal of -0.185 E-score.

As for ACTGGTTC, the binding signal is -0.192 E-score. Take ATAGGGCG: the binding signal is -0.0412 E-score. Take CACGCACA: the binding signal is -0.182 E-score. As for ATGTATCC, the binding signal is 0.125 E-score.

AGCCCATC yielded a binding signal of -0.181 E-score.

ATCGTCAG: the binding signal worked out at 0.16 E-score.

With ACGACCAG, the binding signal is -0.177 E-score. The result for CAGACCGA reads -0.082 E-score; that for AACAGCGG, -0.0877 E-score. Regarding AAGCTTTG, the binding signal was -0.0684 E-score.

Take ATTCACGC: the binding signal is 0.0641 E-score. Regarding AGATGGTA, the binding signal came out at 0.0169 E-score.

As for AACTTTGG, the binding signal worked out at 0.0457 E-score. As for ACTAGTCC, the binding signal was -0.196 E-score. The result for AATAGTCA reads -0.0577 E-score; that for AAGGCACT, -0.304 E-score. In turn, ACAGTGCG had a binding signal of 0.0789 E-score. For the sequence ATGCCCAG, the binding signal was -0.204 E-score. Regarding AGAGAGCG, the binding signal was -0.117 E-score. For ATACCTAG, the binding signal was 0.057 E-score. For AGCGTGCA, the binding signal is -0.157 E-score. Consider AAGTGGTA, for which the binding signal was found to be 0.0203 E-score. The result for CACGGATG reads -0.0843 E-score. The result for CACATTCA reads 0.169 E-score; that for ATTCGCGG, 0.239 E-score; that for ACGTTTCG, 0.00777 E-score. Consider AGGAATAT, for which the binding signal was determined as 0.357 E-score. Sequence CAGCACCA gave a binding signal of -0.226 E-score.

In the case of AAACATAG, the binding signal was found to be 0.00303 E-score. In the case of AGGAACAG, the binding signal is -0.162 E-score. AACGGTCC: the binding signal is -0.145 E-score. The result for AAGGTTAT reads -0.0865 E-score; that for ATCAGGAT, 0.344 E-score. ATGAACTC: the binding signal is -0.198 E-score. For ATGCCACA, the binding signal was 0.000913 E-score. AGTCCGTC: the binding signal is -0.313 E-score. With ATAAACGA, the binding signal stood at 0.059 E-score.

The sequence ACTAGGGA showed a binding signal of -0.177 E-score.

With AACCGGCC, the binding signal is -0.153 E-score. In turn, ACGTTTAG had a binding signal of -0.132 E-score. AAACCCCT: the binding signal is -0.27 E-score. The sequence ATGAACGA gave a binding signal of 0.02 E-score. With AAATTGGC, the binding signal is -0.00458 E-score. AAGCAAAA had a binding signal of -0.0474 E-score.

As to CACATGAG, the binding signal was -0.00253 E-score. CACCTACG displayed a binding signal of -0.123 E-score. Take ACCGCGTA: the binding signal was -0.00453 E-score.

For the sequence CAAACTAG, the binding signal is -0.0102 E-score. In the case of AGTACTTA, the binding signal stood at 0.0793 E-score.

The sequence AGCGAACA came in with a binding signal of 0.0202 E-score. For the sequence AGCCTCCG, the binding signal was -0.249 E-score. CACCGCTA displayed a binding signal of -0.0751 E-score. AATCTCTA returned a binding signal of 0.377 E-score.

AAGGATAT returned a binding signal of 0.387 E-score.

ACTTTGCC: the binding signal was -0.0593 E-score. The sequence ACGCTATA had a binding signal of 0.0332 E-score.

The sequence ATTCGTGC registered a binding signal of 0.0416 E-score. The sequence ATATCGCA yielded a binding signal of 0.355 E-score. With AACCTGCA, the binding signal is -0.0844 E-score. In turn, ACATAAGC showed a binding signal of -0.0941 E-score.

Regarding AGTCACAC, the binding signal is -0.13 E-score. In the case of AGATGTGC, the binding signal is -0.0484 E-score. Turning to ATTCCTCG, the binding signal was 0.233 E-score.

ACAAAAGT displayed a binding signal of -0.114 E-score. For the sequence ATTGAAGA, the binding signal turned out to be 0.112 E-score. AAATGAAC registered a binding signal of -0.074 E-score. The result for AAGTGTCA reads -0.166 E-score; that for ATTCAATA, 0.031 E-score; that for ATGGACAT, -0.0143 E-score. As to AGAGACCC, the binding signal is -0.33 E-score. Turning to CACGCAAC, the binding signal is 0.0233 E-score. Turning to AAACAAGC, the binding signal is -0.0387 E-score. For ATTTCCTG the value was 0.362 E-score; for ACAGTAGT, -0.0744 E-score; for CACCAGTA, -0.00762 E-score. The result for AAGGTAGT reads -0.0011 E-score.

Sequence ACCAGTTA showed a binding signal of -0.0697 E-score. In the case of ATGCAAAG, the binding signal was 0.0229 E-score. Turning to AACAGGAG, the binding signal was -0.136 E-score. For AGCCCAAT, the binding signal was -0.211 E-score. On to ATAAGACC, for which the binding signal was -0.269 E-score. Regarding CAGAAGCA, the binding signal was -0.185 E-score. The sequence ACGCTCGG returned a binding signal of -0.151 E-score. The sequence CACTTCGG yielded a binding signal of -0.0724 E-score.

AGCCCTGC gave a binding signal of -0.264 E-score.

On to ACGCAGGG, for which the binding signal was -0.222 E-score. As for ATCGGATA, the binding signal worked out at 0.33 E-score. For AAGTCCGC the value was -0.0805 E-score; for AATCCACT, 0.364 E-score; for AGTACTGA, 0.0794 E-score. The sequence AGTGTCAA showed a binding signal of -0.0188 E-score.

With ATCCGCTG, the binding signal worked out at 0.261 E-score. Consider AGTCCTAG, for which the binding signal is -0.151 E-score. AAGTATCG yielded a binding signal of 0.185 E-score. With ATTATCAA, the binding signal was 0.147 E-score.

CAAGCAAA registered a binding signal of 0.0803 E-score. AATACGCT came in with a binding signal of 0.105 E-score. AGCGCGTA returned a binding signal of -0.0394 E-score. For ACGCGGTA the value was -0.169 E-score. On to ACTAATCG, for which the binding signal was -0.0313 E-score. AGGGAGGC had a binding signal of -0.36 E-score. AATCCAAG: the binding signal came out at 0.394 E-score.

With AATGGCAC, the binding signal is -0.0958 E-score. In turn, ACAAGGTA had a binding signal of -0.073 E-score. With ATCAGCTG, the binding signal amounted to 0.0711 E-score. In turn, AACAGTGA had a binding signal of -0.164 E-score. For CACAGGTA, the binding signal is -0.0211 E-score. The result for ACCTAGCT reads -0.174 E-score; that for ACAATCAG, 0.237 E-score. As for ACGGAATA, the binding signal came to 0.264 E-score.

With AACTGCTC, the binding signal is -0.0983 E-score. For ACTCCTAC the value was -0.185 E-score; for AATCGCCG, 0.301 E-score. ACACGCTG: the binding signal was -0.141 E-score.

Turning to ATTATATA, the binding signal turned out to be 0.215 E-score. In turn, ACGCAACG showed a binding signal of 0.0162 E-score. ACTCCACA showed a binding signal of -0.0399 E-score. In turn, ATCTAGTA yielded a binding signal of 0.316 E-score.

Consider AAGGATAA, for which the binding signal turned out to be 0.13 E-score. The result for AATAGTTA reads 0.148 E-score; that for AAAACAAC, 0.0975 E-score.

Consider AATATGGA, for which the binding signal was 0.156 E-score.

As to ATGTTCAG, the binding signal is -0.0573 E-score.

As to AACGCTGA, the binding signal was found to be 0.0211 E-score.

Sequence ACCGTAAC registered a binding signal of 0.0528 E-score. ACGGATGA showed a binding signal of -0.152 E-score.

AGATCCTC registered a binding signal of 0.387 E-score. For AACTCGCC, the binding signal is -0.159 E-score. ATCTACGA gave a binding signal of 0.334 E-score. As for ACCTTCCG, the binding signal is -0.0959 E-score. ATCAAGTC gave a binding signal of 0.0474 E-score.

With AGCCGCTC, the binding signal is -0.221 E-score. For AACTACCC the value was -0.0879 E-score; for AGAGTTTA, 0.0323 E-score; for AAGCACCC, -0.259 E-score. The sequence AACGGCAC gave a binding signal of -0.0234 E-score. The result for AGATCATC reads 0.147 E-score.
